Assay results published in PMC6919601, “Identification of Plasmodium dipeptidyl aminopeptidase allosteric inhibitors by high throughput screening” (PLoS ONE, 2019).
Out of some 110,000 compounds screened, about 230 (0.21%) showed an effect of 50% or more. Some of the results follow.

Biological target: DPAP1 (Plasmodium falciparum, UniProt Q8IIJ9)
Experiment: primary screen, percent inhibition; read by cleavage of a fluorogenic dipeptide substrate; higher = more effect of the substance
Design: species or system P. falciparum D10 trophozoite lysates; single well
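Further: 30 min substrate incubation versus DMSO and 10 µM JCP410 controls.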

Sequence of DPAP1 (Q8IIJ9 whole entry, looked up): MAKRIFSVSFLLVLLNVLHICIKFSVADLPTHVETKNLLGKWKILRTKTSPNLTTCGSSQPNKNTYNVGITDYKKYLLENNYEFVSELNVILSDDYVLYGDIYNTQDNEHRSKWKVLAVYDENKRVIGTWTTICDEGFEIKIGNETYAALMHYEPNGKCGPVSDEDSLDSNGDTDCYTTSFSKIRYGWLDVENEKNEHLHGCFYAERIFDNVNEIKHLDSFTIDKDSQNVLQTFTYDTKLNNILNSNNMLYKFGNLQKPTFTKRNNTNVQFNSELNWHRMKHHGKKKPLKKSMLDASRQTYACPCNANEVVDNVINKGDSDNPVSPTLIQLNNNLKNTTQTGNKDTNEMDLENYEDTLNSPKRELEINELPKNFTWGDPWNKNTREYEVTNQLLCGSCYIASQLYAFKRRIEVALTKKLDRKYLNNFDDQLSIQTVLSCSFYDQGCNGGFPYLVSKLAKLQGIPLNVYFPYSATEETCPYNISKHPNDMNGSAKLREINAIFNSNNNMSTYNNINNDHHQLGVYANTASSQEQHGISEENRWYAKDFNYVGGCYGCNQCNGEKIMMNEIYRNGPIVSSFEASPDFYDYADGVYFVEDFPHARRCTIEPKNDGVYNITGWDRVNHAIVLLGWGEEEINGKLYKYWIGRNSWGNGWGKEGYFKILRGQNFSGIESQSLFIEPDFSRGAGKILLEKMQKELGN

Compound | % Inhibition @ 10 uM [%]
O=C(Cn1ncc2c3ccccc3n(Cc3ccccc3)c2c1=O)N1CCOCC1 | 1.8
Cc1ccc(S(=O)(=O)N2CC=C(c3c(C)n(CC(=O)N4CCCC4)c4ccccc34)CC2)c(C)c1 | 0.66
Cc1ccc(C2CC(C(F)(F)F)n3ncc(C(=O)N(C)Cc4c(C)nn(C)c4C)c3N2)cc1 (centres unmarked) | -2.14
CCOC(=O)C1CCN(Cc2ccccc2Cl)CC1 | 3.25
Cc1nc2ccccc2c2oc(C(=O)NC3CC3)cc12 | -1.7
CC(=O)c1ccc(N(C(C)=O)C2=C(NCCO)C(=O)c3ccccc3C2=O)cc1 | -1.5
COc1cccc2c(C(=O)O)cc(-c3ccccc3)nc12 | 0.0345
Cc1c(CN2CCC(C(N)=O)CC2)c(=O)n(-c2ccccc2)n1C | -3.27
CC1CC(C)CN(C(=O)CN2C(=O)CSc3ncccc32)C1 (centres unmarked) | 1.03
Cc1cc(C)nc(N2C(=O)CC(Cc3ccc(Cl)cc3)C2=O)n1 (centres unmarked) | -6.94
CN1CCN(Cc2nc3c(c(=O)n(C)c(=O)n3C)n2CCCO)CC1 | -3.23
CCOCCCNC(=O)c1cn(C)c(=O)c2cc(OC)c(OC)cc12 | 0.231
CC(C)NC(=O)c1ccc(N2CCN(C(C)C)CC2)nc1 | -6.52
CCN(CC)CCCCOc1ccccc1C | -2.28
COCCCNc1cnn(C23CC4CC(CC(C4)C2)C3)c(=O)c1Cl | -3.44
N#CCNC(=O)[C@@H](Cc1cccc2ccccc12)NC(=O)OCc1ccccc1 | -1.5
CC(C)Cn1c(=O)c2sccc2n2c(CCCC(=O)N3CCCCC3)nnc12 | -6.56
CCCN1CCN(C(=O)c2cccc3c2C(=O)N(CCOC)C3)CC1 | -2.29
CC1CCN(C(=O)Cn2cnc3onc(-c4ccc(F)cc4)c3c2=O)CC1 | 5.2
Cc1ccc(-c2nc3s/c(=C\C=C\c4ccccc4)c(=O)n3n2)cc1 | -1.52
COc1ccccc1CNC(=O)C1CCC1 | -3.37
COc1ccc(-n2nnnc2C2CCN(S(=O)(=O)c3cc(OC)ccc3OC)CC2)cc1 | 1.67
COc1ccc(-c2cc(C)no2)cc1S(=O)(=O)NCCCN(C)Cc1ccccc1 | -2.25
CC(C)(C)c1ccc(Oc2coc3cc(OCC(=O)NC4CCCCC4)ccc3c2=O)cc1 | -7.45
CCCCSCC1Cn2nc([N+](=O)[O-])nc2O1 (centres unmarked) | -0.636

Compound | % Inhibition @ 10 uM [%]
O=C(c1ccccc1F)N1CCN(c2ccccc2)CC1 | 1.13
COc1ccc(CNC(=O)c2cc3n(n2)C(C(F)(F)F)CC(c2ccco2)N3)cc1OC (centres unmarked) | 4.08
Cc1nc2c(c(C)c1CCC(=O)NCCc1ccco1)c(=O)n(C)c(=O)n2C | 6.84
CCc1ccc(C(=O)CC2(O)C(=O)N(C)c3ccccc32)cc1 (centres unmarked) | -6.86
CCOC(=O)N1CCN(C(=O)COc2ccc(C)c(C)c2)CC1 | -1.6
Cc1ccc2[nH]c(-c3ccc(O)cc3)nc2c1 | 1.12
O=C(Nc1ccc(F)cc1)C12CC3CC(CC(C3)C1)C2 | 6.18
O=C(NCCCN1CCCCC1)C1=Cc2sc3c(c2CS1)CCCC3 | 7.04
CC1=C(c2ccc(C(C)C)cc2)S(=O)(=O)N=C1NC(C)CCc1ccccc1 (centres unmarked) | 2.27
CCN(CC)C(C)C(=O)Nc1c2c(cc3c1CCC3)CCC2 (centres unmarked) | 3.91
CCCCN1CC(C(=O)NCCc2ccc(Cl)cc2)CC1=O (centres unmarked) | 4.81
O=C(O)c1ccc(Cl)c(S(=O)(=O)N2CCCC2)c1 | 1.88
CN(C)/C=N/c1ccn(Cc2ccccc2)c(=O)c1C#N | -0.591
O=C(COc1ccc(Cl)c(Cl)c1)N(Cc1ccc(Br)cc1)c1cccc(Cl)c1 | 0.132
CN1CCn2ccc3nc(O)nc1c32 | 3.74
COc1ccc(-c2noc(CN(C(=O)c3ccc(OC)c(OC)c3)C3CCCCC3)n2)cc1 | 0.486
Cc1cccc(N2CCN(C(=O)CCCC(=O)O)CC2)c1C | -0.898
COc1cccc(OC)c1C(=O)NCc1ccc(Cl)c(Cl)c1 | 3.67
Cc1ccc2scc(CN3CCCC3)c2c1 | 8.59
O=C(O)/C(=C\c1ccc(F)cc1)NC(=O)c1ccco1 | 15.4
COCC1=Nc2ncnn2C(c2ccc(OC)cc2)/C1=C(/O)OC (centres unmarked) | -1.62
Cc1c2cnn(CC(=O)N3CCN(Cc4ccccc4)CC3)c(=O)c2c(C)n1Cc1ccccc1F | -2.17
COc1cc(C(=O)n2nc(-c3ccco3)nc2NCc2cccs2)cc(OC)c1OC | 0.248
CC1(C)Cc2ccccc2C(/C=C(\O)C(=O)N2CCOCC2)=N1 | 0.815
COc1ccc(S(=O)(=O)Nc2c(C)n(C)n(-c3ccccc3)c2=O)cc1 | -0.446
